Measurements: article PMC4336329 (PLoS ONE, 2015)
About 14,000 (4.5%) of roughly 310,000 compounds showed an effect of 50% or more. The effect is printed as a negative number. This is one part of the list.

What follows are compounds tested against human ether-à-go-go-related gene (hERG) potassium channel (human, UniProt Q12809) (assay: primary screen, population patch clamp on CHO cells stably expressing hERG).
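Also: peak tail current of the secondary pulse compared with the same well before compound.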

Sequence of human ether-à-go-go-related gene (hERG) potassium channel (Q12809 whole entry, looked up): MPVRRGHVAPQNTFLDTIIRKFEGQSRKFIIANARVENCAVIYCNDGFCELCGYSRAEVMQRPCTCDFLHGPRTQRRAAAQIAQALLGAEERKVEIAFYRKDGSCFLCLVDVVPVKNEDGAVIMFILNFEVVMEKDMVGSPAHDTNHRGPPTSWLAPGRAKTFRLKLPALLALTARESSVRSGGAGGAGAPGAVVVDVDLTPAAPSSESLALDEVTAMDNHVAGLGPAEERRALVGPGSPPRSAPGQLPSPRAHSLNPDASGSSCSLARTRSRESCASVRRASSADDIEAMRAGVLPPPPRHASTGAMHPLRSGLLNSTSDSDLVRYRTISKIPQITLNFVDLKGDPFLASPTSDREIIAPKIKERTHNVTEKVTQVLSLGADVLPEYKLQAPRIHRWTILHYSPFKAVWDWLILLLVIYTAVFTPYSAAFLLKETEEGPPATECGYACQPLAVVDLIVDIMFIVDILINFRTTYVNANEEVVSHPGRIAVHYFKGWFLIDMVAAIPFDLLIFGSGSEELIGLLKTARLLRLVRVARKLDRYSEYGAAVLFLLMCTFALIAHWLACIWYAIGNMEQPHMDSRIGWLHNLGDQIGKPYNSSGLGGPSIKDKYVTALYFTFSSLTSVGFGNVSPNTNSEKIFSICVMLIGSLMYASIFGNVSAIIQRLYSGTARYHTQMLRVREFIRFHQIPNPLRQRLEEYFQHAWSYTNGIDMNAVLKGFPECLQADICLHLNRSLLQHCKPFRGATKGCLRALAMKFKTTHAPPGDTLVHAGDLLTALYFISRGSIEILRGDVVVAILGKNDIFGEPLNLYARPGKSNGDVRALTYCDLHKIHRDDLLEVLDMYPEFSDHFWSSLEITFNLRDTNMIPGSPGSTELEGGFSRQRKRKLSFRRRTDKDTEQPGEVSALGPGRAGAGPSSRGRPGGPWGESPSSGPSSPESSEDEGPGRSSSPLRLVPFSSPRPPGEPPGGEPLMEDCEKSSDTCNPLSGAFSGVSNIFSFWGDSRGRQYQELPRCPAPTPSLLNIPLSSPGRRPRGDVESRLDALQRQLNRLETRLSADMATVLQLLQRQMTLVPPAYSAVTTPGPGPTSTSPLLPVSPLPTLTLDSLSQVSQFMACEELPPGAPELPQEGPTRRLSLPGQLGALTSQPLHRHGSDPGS

| SMILES | hERG current change (%, negative = inhibition) at 10uM [%] |
| --- | --- |
| Cc1cc(N2CCOCC2)nc2ccc(Cl)cc12 | 9.25 |
| CCc1cccc2c1NC(=O)C2(O)N1CCCC(C)C1 (stereo not shown) | 12 |
| CC(C)n1c(SCC(=O)NCc2ccco2)nc2c1c(=O)n(C)c(=O)n2C | -3.45 |
| Cc1cccc(C)c1NC(=O)C1c2cccc[n+]2CC(=O)N1Cc1ccc2c(c1)OCO2.[I-] (stereo not shown) | 19 |
| CCOC(=O)/C(C#N)=C/c1ccc(OCC(=O)Nc2ccccc2)c(OC)c1 | 5.21 |
| O=C(CSc1nnc(-c2ccco2)n1Cc1ccco1)NCc1ccccc1 | -50.8 |
| O=C(CSc1nc2c(c(=O)n1-c1ccccc1)SCC2)N1CCN(c2ccccc2)CC1 | -76.5 |
| CCN(CC)S(=O)(=O)c1cccc(NC(=O)CNc2cccc(S(=O)(=O)N3CCOCC3)c2)c1 | -15.5 |
| Cc1nc2ccc(NC(=O)C(F)(F)F)cc2o1 | -6.51 |
| Cc1c(NC(=O)CSc2nc3ccccc3n2C)c(=O)n(-c2ccccc2)n1C | -3.98 |
| CC(=O)c1ccc(N2CCN(C(=O)CCC(=O)c3cccs3)CC2)cc1 | -43.3 |
| Cc1nn2c(N3CCN(C(=O)c4ccco4)CC3)cc(C(C)(C)C)nc2c1-c1ccccc1 | 1.48 |
| N#Cc1c(N)nc2c(c1N)CC(CO)O2 (stereo not shown) | 22.6 |
| CCCN1CCC(NC(=O)C2CC=CCC2C(=O)O)CC1 (stereo not shown) | 7.93 |
| FC(F)(F)c1cccc(-c2cc(C3CCNCC3)[nH]n2)c1 | -44.3 |
| Cc1cccc2sc(NNC(=O)c3cc(=O)c4ccccc4o3)nc12 | 10.5 |
| O=Cc1cn(CC(=O)N2CCCCCC2)c2ccccc12 | 7.16 |
| Cl.O=C(CN1CCCCC1)NC1CCc2cc3c(cc21)CCC3 (stereo not shown) | -7.06 |
| CCN(CC(=O)Nc1c(F)cccc1F)C(=O)CCNS(=O)(=O)c1ccc(C)c(C)c1 | 1.26 |
| Cc1ccc(NC(=O)NC2=NN(c3ccccc3)C(=O)/C2=C2/CCCN2C)cc1 | 3.31 |
| C/C(=N/OCC(=O)Nc1ccccc1)c1cccs1 | 3.34 |
| COCCCNC(=S)N/N=C/c1ccc(O)cc1 | 12.2 |
| O=C(CSc1nccc2ccccc12)N1CCN(c2ccccn2)CC1 | -16.5 |
| CC1CCCN(C(=O)c2cc3ccccc3cc2O)C1 (stereo not shown) | -6.88 |
| CN(c1ccccc1)c1ccc(/C=N/NC(=O)CC#N)cc1 | 9.89 |
